Experimental data taken from paper PMC9939295 (Acta Pharmaceutica Sinica. B, 2022).

B1: recombinant GST-tagged ENO1 (enzyme)
chain: MSILKIHAREIFDSRGNPTVEVDLFTSKGLFRAAVPSGASTGIYEALELRDNDKTRYMGKGVSKAVEHINKTIAPALVSKKLNVTEQEKIDKL[about 350 residues not shown]
B2: recombinant GST-tagged ENO1 R9K (enzyme)
chain: MSILKIHAKEIFDSRGNPTVEVDLFTSKGLFRAAVPSGASTGIYEALELRDNDKTRYMGKGVSKAVEHINKTIAPALVSKKLNVTEQEKIDKL[about 350 residues not shown]

Target: the molecule itself
Experiment: cross-linking

Protein | stoichiometry N | binding result
B1 | 2 | 
B2 |  | binds
